# The campaign covered roughly 110,000 compounds. About 230 (0.21%) showed an effect of 50% or more. The list shows a part of the results.
# Biological target: DPAP1 (Plasmodium falciparum, UniProt Q8IIJ9)
# Assay: primary screen, percent inhibition; read by cleavage of a fluorogenic dipeptide substrate; higher = more effect of the substance
# Parameters: species or system P. falciparum D10 trophozoite lysates; single well
# 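Note: 30 min substrate incubation versus DMSO and 10 µM JCP410 controls.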
# Chain of DPAP1 (Q8IIJ9 whole entry, looked up): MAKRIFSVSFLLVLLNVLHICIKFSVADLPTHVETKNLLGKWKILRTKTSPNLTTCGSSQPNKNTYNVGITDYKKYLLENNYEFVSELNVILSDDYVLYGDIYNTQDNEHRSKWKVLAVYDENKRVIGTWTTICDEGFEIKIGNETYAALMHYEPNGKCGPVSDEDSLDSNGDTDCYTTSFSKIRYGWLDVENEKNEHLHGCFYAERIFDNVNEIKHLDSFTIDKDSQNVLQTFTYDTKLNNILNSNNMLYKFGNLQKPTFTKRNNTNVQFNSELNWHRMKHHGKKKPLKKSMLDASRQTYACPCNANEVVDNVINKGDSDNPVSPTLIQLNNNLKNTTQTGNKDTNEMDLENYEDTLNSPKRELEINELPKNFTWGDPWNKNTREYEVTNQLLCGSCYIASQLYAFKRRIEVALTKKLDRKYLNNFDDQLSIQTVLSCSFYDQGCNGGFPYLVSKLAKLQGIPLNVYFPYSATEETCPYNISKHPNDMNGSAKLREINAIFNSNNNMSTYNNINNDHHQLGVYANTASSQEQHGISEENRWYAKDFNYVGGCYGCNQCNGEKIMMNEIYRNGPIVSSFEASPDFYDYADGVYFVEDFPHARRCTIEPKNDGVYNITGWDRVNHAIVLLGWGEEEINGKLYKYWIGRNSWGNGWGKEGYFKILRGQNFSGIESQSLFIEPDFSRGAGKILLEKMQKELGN
row,SMILES,% Inhibition @ 10 uM [%]
1,CN1C(c2ccccc2)CC(C)(O)CC1c1ccccc1 (centres unmarked),-4.11
2,COC(=O)c1cc(S(=O)(=O)N2CCN(Cc3ccc4c(c3)OCO4)CC2)cn1C,-5.86
3,C=CCc1ccccc1OCCOc1c(OC)cc(/C=C2/C(=N)N3C=CSC3=NC2=O)cc1OC,-5.28
4,CCN(C(=O)CCCC(=O)N(CC)c1ccccc1)c1ccccc1,-0.413
5,O=C(/C=C/c1ccc(Cl)cc1)OCC(=O)c1ccc(Br)cc1,1.76
6,Cc1ccc(N(CC(=O)NCc2ccncc2)S(=O)(=O)c2ccc(Cl)cc2)cc1C,0.563
7,CCCCC(NC(=O)[C@H](CC(C)C)NC(=O)OCc1ccccc1)C(=O)c1nnc(-c2ccncc2)o1 (some centres unmarked),-5.2
8,Cc1ccc(S(=O)(=O)Cc2nc(-c3ccc(C(=O)NCc4cccc(C)c4)cc3)oc2C)cc1,0.28
9,O=C1C=C(Nc2ccc(Cl)cc2Cl)CC(c2ccco2)C1 (centres unmarked),-2.87
10,Cc1ccc(C2CC(=O)NC(SCC(=O)Nc3ccc(Br)cc3)=C2C#N)s1 (centres unmarked),-1.64
11,CC(C)NC(=O)c1cnn2c(C(F)(F)F)cc(-c3ccc(Br)cc3)nc12,-0.891
12,COc1ccc(S(=O)(=O)N(C)CC(=O)Nc2ccccc2F)cc1,-6.25
13,CCOc1ccccc1C(=O)NC(CC)c1ccc(C)cc1 (centres unmarked),4.83
14,C=CCNC(=O)c1ccc(Cn2c(=S)[nH]c3c([nH]c4ccc(OC)cc43)c2=O)cc1,1.15
15,O=c1c(Oc2ccccc2Br)coc2cc(O)ccc12,-4.93
16,CCN(CC)Cc1ccccc1C(O)c1ccccc1 (centres unmarked),-1.72
17,O=C(O)CC(CNS(=O)(=O)c1cccc2nsnc12)c1ccccc1 (centres unmarked),-1.24
18,CC1=C(C(=O)N2CCCCC2)C(c2ccc(C(F)(F)F)cc2)C2=C(O)CC(C)(C)CC2=N1 (centres unmarked),3.45
19,NS(=O)(=O)c1ccc(CCNC(=O)CNS(=O)(=O)c2cccs2)cc1,-6.4
20,c1ccc(CN2CCC(NC3CCSC3)CC2)cc1 (centres unmarked),-3.6
21,CCOc1ccc2c(c1)C(SCC(=O)N1CCC3(CC1)OCCO3)CC1(CCCCC1)O2 (centres unmarked),-5.82

row,SMILES,% Inhibition @ 10 uM [%]
1,CC(C)c1ccc(S(=O)(=O)c2cc3ccccc3oc2=O)cc1,2.12
2,Cc1ccc(CCNC(=O)Cn2ncn3c(cc4sccc43)c2=O)cc1,3.4
3,CCCCn1nnnc1NCc1cc(Cl)c(OC)c(OC)c1,-4.11
4,CCOc1ccc(/C=C2\SC(N3CC(C)OC(C)C3)=NC2=O)cc1 (centres unmarked),3.59
5,O=C(C1COc2ccccc2O1)N1CCCC1 (centres unmarked),3.61
6,CCN(CC)c1nc(NC(C)(C)C)nc(NC(C)(C)C)n1,-2.51
7,C=CCNC(=O)CCCc1nc(-c2cc(OC)c(OC)c(OC)c2)no1,-4.75
8,Cc1ccc(C(=O)Nc2ccc(N3CCOCC3)cc2)cc1[N+](=O)[O-],-0.687
9,O=C(c1ccc(CS(=O)c2cccc(Cl)c2)o1)N1CCC(N2CCCCC2)CC1 (centres unmarked),3.1
10,CCCC(C(=O)N1CCOCC1)N1C(=O)C2C3C=CC(C3)C2C1=O (centres unmarked),-4.48
11,COc1cc(CN2CCN(Cc3ccc(OC)c(OC)c3)CC2)cc(OC)c1,-5.19
12,CCCN1CCN(C(=O)c2nc(-c3ccc(C)cc3)n3c2CCCCC3)CC1,0.589
13,COc1ccc(-c2csc(/C(C#N)=C\Nc3cccc(C)c3)n2)cc1,-0.661
14,COc1ccc(OC)c(N(CC(=O)N2CCOCC2)S(=O)(=O)c2ccccc2)c1,1.57
15,Cc1nnc(NC(=O)[C@H]2O[C@@H]3OC(C)(C)O[C@@H]3[C@H]3OC(C)(C)O[C@H]32)s1,-5.36
16,CCN(CC)C(=O)CSc1nc(C)cc(C)c1C#N,21.4
17,O=C(NCCc1cccs1)C1CCN(c2nc3ccccc3n3cccc23)CC1,-2.58
18,Cc1cc2cc(-c3ccccc3)cn2c(N2CCOCC2)c1C#N,2.36
19,CCCCN(C)C(=O)Cc1c(C(=O)O)[nH]c2ccc(Cl)cc12,-6.58
20,CC1(C)CC(=O)C2=C(C1)N(c1nc[nH]n1)C(N)=C(C#N)C2c1cccs1 (centres unmarked),-6.51
21,CCOc1ccccc1/C=C1N=C(/C=C/c2ccc(Cl)cc2)OC/1=O,2.44

row,SMILES,% Inhibition @ 10 uM [%]
1,CCOC(=O)c1c(N)nn(C(=O)C(C)C)c1-c1ccccc1,-3.64
2,CCOCCCNC(=O)C1c2ccccc2C(=O)N2CCc3ccccc3C12 (centres unmarked),-3.77
3,O=C(O)Cn1c(SCCOc2ccccc2F)nc2ccccc21,13.2
4,CC1CCCCN1C(=O)c1nn(C)c2c1CSc1ccccc1-2 (centres unmarked),7.85
5,CC(C)Cn1c(=O)c(C#N)cc2c(=O)n3ccccc3nc21,2.73
6,COc1ccc(/C=N/OCC(=O)Nc2nc3ccccc3s2)cc1,0.189
7,COc1ccc(C(=O)N(Cc2cccs2)C2CCS(=O)(=O)C2)cc1 (centres unmarked),5.3
8,CCOc1ccc(CN2CCN(c3ccc(C(C)=O)cc3)CC2)cc1,-2.36
9,O=C(NCC1CCCO1)c1ccc(CS(=O)(=O)Cc2ccccc2Cl)o1 (centres unmarked),-3.58
10,COc1ccc(-c2cc3c(ccc4ccccc43)oc2=O)cc1,-0.591
11,Clc1ccc(-c2noc3ncnc(N4CCOCC4)c23)cc1,-0.495
12,CCCOC(=O)C1=C(C)NC(=O)NC1c1ccccc1Br (centres unmarked),-5.63
13,CC1CC2(C)CC(C)C1(COC(=O)Nc1ccccc1)CO2 (centres unmarked),5.01
14,O=S(=O)(c1cnccc1N1CCN(CCO)CC1)N1CCOCC1,-2.74
15,N#CC1=C(N)N(c2cccnc2)C2=C(C(=O)CC(c3ccccc3)C2)C1c1ccc(F)cc1 (centres unmarked),-1.37
16,O=C(NCCCc1nc2ccccc2n1Cc1c(F)cccc1Cl)c1ccco1,-2.99
17,O=c1[nH]c(=O)c2nc3cc([N+](=O)[O-])ccc3nc2[nH]1,2.65
18,Cc1nc2c(-c3ccc(F)cc3)c(C)nn2c(C)c1CCC(=O)O,-2.83
19,Cc1nc2ccn(Cc3ccccc3)c(=O)c2cc1C(=O)O,-1.25
20,COc1ccc(C2NCCc3c2[nH]c2ccccc32)c(OC)c1 (centres unmarked),-1.8

# — paper PMC6919601, “Identification of Plasmodium dipeptidyl aminopeptidase allosteric inhibitors by high throughput screening” (PLoS ONE, 2019)
